Consider 50 molecules from paper PMC6919601, “Identification of Plasmodium dipeptidyl aminopeptidase allosteric inhibitors by high throughput screening” (PLoS ONE, 2019).

Molecules are shown by their SMILES. “And” between values parts separate entries of the source, which are not always exact repeats. Equal entries are not always repeated. About 230 (0.21%) of roughly 110,000 compounds showed an effect of 50% or more. Some of the results follow.
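Note: 30 min substrate incubation versus DMSO and 10 µM JCP410 controls.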

The target of the experiment is DPAP1 (Plasmodium falciparum, UniProt Q8IIJ9). As to the kind of experiment: primary screen, percent inhibition; read by cleavage of a fluorogenic dipeptide substrate; higher = more effect of the substance. Also on record: species or system P. falciparum D10 trophozoite lysates; single well.
Sequence of DPAP1 (Q8IIJ9 whole entry, looked up): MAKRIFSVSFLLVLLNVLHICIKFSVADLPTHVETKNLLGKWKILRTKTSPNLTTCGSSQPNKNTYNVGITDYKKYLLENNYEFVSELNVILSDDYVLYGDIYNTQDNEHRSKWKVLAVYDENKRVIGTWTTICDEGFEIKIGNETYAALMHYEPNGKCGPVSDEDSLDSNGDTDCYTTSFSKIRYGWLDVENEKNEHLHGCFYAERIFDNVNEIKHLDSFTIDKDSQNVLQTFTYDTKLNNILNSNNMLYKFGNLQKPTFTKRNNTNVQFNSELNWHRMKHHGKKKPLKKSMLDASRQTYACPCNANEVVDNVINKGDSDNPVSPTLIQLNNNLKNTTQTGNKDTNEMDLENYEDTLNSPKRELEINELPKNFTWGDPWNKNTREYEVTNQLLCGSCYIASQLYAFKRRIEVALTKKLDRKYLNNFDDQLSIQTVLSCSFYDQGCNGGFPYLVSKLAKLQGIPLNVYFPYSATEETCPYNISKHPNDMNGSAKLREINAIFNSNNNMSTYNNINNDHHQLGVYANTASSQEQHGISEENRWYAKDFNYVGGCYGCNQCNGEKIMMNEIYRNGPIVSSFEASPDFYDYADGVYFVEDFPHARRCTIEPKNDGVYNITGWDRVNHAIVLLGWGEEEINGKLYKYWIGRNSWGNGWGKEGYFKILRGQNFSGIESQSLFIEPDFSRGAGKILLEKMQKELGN
Consider `COc1ccccc1/C=c1/[nH]c(=O)/c(=C\c2ccccc2OC)[nH]c1=O`, for which the “% Inhibition @ 10 uM” value is 1.44%.
Consider `Nc1c(N2CCN(c3ccccc3)CC2)c2ccccc2oc1=O`, for which the “% Inhibition @ 10 uM” value is given as -4.3%.
With `O=C(c1csc2c1CCCC2)N1CCN(c2ccccn2)CC1`, the “% Inhibition @ 10 uM” value is recorded as -2.74%.
Consider `COc1ccccc1-c1nc(-c2cccnc2)no1`, for which the “% Inhibition @ 10 uM” value came out at 4.65%.
For `Cc1cccc(NC(=O)CN2C(=O)N/C(=C\c3cc(C)n(-c4ccccc4)c3C)C2=O)c1`, the “% Inhibition @ 10 uM” value is reported as 0.635%.
On to `Cc1ccc(NS(=O)(=O)c2ccc(NC(=O)C3CC3)cc2)c(C)c1`, for which the “% Inhibition @ 10 uM” value turned out to be 2.95%.
On to `COc1cc(-c2cccs2)c(OC)cc1-c1cccs1`, for which the “% Inhibition @ 10 uM” value is on record as -1.65%.
`Cc1nnc(N2CCC(C(=O)NCCN3CCCCC3C)CC2)c2nn(-c3ccccc3)c(C)c12` (centres unmarked): the “% Inhibition @ 10 uM” value is on record as 6.1%.
As for `COc1ccc2c(c1OC)C(=O)OC2Nc1ncccc1C` (centres unmarked), the “% Inhibition @ 10 uM” value is -4.7%.
`CCn1cc(CNC(=O)Cn2nc(C(F)(F)F)cc2C2CC2)cn1`: the “% Inhibition @ 10 uM” value is 0.709%.
On to `CNCC(=O)Nc1ccc2c(c1)Nc1ccccc1CC2`, for which the “% Inhibition @ 10 uM” value is given as -2.47%.
Take `CCOC(=O)c1nnn(-c2nonc2N)c1-c1ccc(C)cc1`: the “% Inhibition @ 10 uM” value is -3.64%.
On to `Cc1ccsc1C1C(C#N)=C(N)Oc2[nH]c(-c3ccccc3)nc21` (centres unmarked), for which the “% Inhibition @ 10 uM” value was determined as 5.52%.
As to `CC(C)/N=C(\N=C(\NS(=O)(=O)c1ccccc1)c1ccccc1)c1ccc(Br)cc1`, the “% Inhibition @ 10 uM” value is recorded as -1.29%.
As to `Cc1ccc2c(c1)-c1c(cnn1CC(=O)NCCc1ccsc1)CO2`, the “% Inhibition @ 10 uM” value was -6.42%.
As for `CCSc1nc2c(c(=O)n1CC1CCCC1)C1(CCCCC1)Cc1ccccc1-2`, the “% Inhibition @ 10 uM” value is on record as 3.01%.
On to `CC1=C(C(=O)Nc2ccc(Cl)cc2)C(c2ccc3c(c2)OCO3)n2ncnc2N1` (centres unmarked), for which the “% Inhibition @ 10 uM” value is listed as 2.93%.
As for `CC1=CC(C)(C)N(C(=O)CN2C(=O)C3CCCCC3C2=O)c2ccccc21` (centres unmarked), the “% Inhibition @ 10 uM” value is reported as 1.57%.
On to `Cc1ccc(S(=O)(=O)NCC(=O)N2CCN(Cc3ccccc3)CC2)cc1`, for which the “% Inhibition @ 10 uM” value was 4.94%.
In the case of `COCC(C)NCc1ccc(OC)c(C)c1` (centres unmarked), the “% Inhibition @ 10 uM” value was -1.54%.
As for `CC(=O)Nc1cccc(NC(=O)c2ccco2)c1`, the “% Inhibition @ 10 uM” value was 4.66%.
As to `c1cnc(N2CCN(Cc3ccsc3)CC2)nc1`, the “% Inhibition @ 10 uM” value is reported as 7.03%.
On to `O=C(O)c1ccc(C2(c3ccc(C(=O)O)cc3)OC(=O)c3ccccc32)cc1`, for which the “% Inhibition @ 10 uM” value was -6.99%.
For `Cn1c(NCc2c[nH]nc2-c2cccs2)nc2ccccc21`, the “% Inhibition @ 10 uM” value is reported as 3.24%.
To `Cc1ccc(S(=O)(=O)N(CC(=O)NC2CC2)C2CCCCC2)cc1` belongs -1.4%; to `CCn1c2ccccc2c2cc(/C=C(\C#N)c3nn(CCO)c(N)c3C#N)ccc21`, 4.66%; to `FC(F)(F)COc1nc(OCC(F)(F)F)nc(OCC(F)(F)F)n1`, 4.22%.
Regarding `CC(=O)Nc1ccc(NC(=O)C2CCCN(c3ncnc4c3nc3n4CCCCC3)C2)cn1` (centres unmarked), the “% Inhibition @ 10 uM” value is on record as -0.238%.
For the molecule `CCOc1ccc(CNC(=O)C2=Cc3sc4c(c3CS2)CCCC4)cc1`, the “% Inhibition @ 10 uM” value was determined as 15.7%.
For `CCN(C(=O)Cc1ccccc1)c1ccccc1C`, the “% Inhibition @ 10 uM” value is listed as 0.135%.
On to `Cc1ccnc(NC(=O)C(c2ccccc2)N2Cc3ccccc3C2=O)c1` (centres unmarked), for which the “% Inhibition @ 10 uM” value was found to be 1.66%.
Regarding `N#CCCN1CCN(C2=NC(=O)/C(=C/c3ccccc3)S2)CC1`, the “% Inhibition @ 10 uM” value is listed as 4.08%.
Take `O=C(C1=NOC2(C(=O)c3ccccc3C2=O)C1c1ccccc1)c1ccccc1` (centres unmarked): the “% Inhibition @ 10 uM” value is -3.58%.
As for `Cc1cccc(NS(=O)(=O)c2ccc(Cl)cc2)c1C`, the “% Inhibition @ 10 uM” value stood at 1.91%.
As to `Cc1ccc(-n2c(-c3ccncc3)nc3ccccc3c2=O)cc1`, the “% Inhibition @ 10 uM” value was -4.43%.
As to `Cc1cc(N2CCNCC2)n2ncnc2n1`, the “% Inhibition @ 10 uM” value is -2.91%.
With `CCc1ccccc1-n1nnc(-c2nc(-c3ccccc3)no2)c1N`, the “% Inhibition @ 10 uM” value is listed as -9.7%.
Regarding `Cc1cc(O)nc(SCCOc2ccc(C)c(C)c2)n1`, the “% Inhibition @ 10 uM” value is 0.512%.
For the molecule `CN(C(=O)c1ccc([N+](=O)[O-])cc1)c1ccccc1`, the “% Inhibition @ 10 uM” value is given as -3.04%.
The value for `CCO/C(O)=C1\C(C)=Nc2nc(-c3cc(OC)cc(OC)c3)nn2C1c1ccc(OC)cc1` (centres unmarked) was 0.0842%.
Take `COc1ccc(NCc2ccc(OC)c(C)c2)cc1`: the “% Inhibition @ 10 uM” value was -3.8%.
On to `Cc1noc2c1/C(=N\O)CC(c1ccccc1)C2` (centres unmarked), for which the “% Inhibition @ 10 uM” value was 0.774%.
The value for `O=C1NC(=S)N(c2cccc(Cl)c2)C(=O)/C1=C/c1ccc(Cl)cc1` was 12%.
For the molecule `CCc1ccc(N2C(=O)NC(=O)/C(=C(/C)O)C2=O)cc1`, the “% Inhibition @ 10 uM” value is given as -8.29%.
As for `CC(=O)Nc1ccc(C)c(NC(=O)c2ccc(Cl)cc2Cl)c1`, the “% Inhibition @ 10 uM” value was -4.61%.
For `COc1cccc(/C=C/c2ccncc2)c1OC`, the “% Inhibition @ 10 uM” value was 4.16% and 14%.
In the case of `CC(=O)c1c(O)ccc2c(C)cc(=O)oc12`, the “% Inhibition @ 10 uM” value is 1.7%.
On to `Cc1cccc(CCNc2ncnc3onc(-c4ccc(F)cc4)c23)c1`, for which the “% Inhibition @ 10 uM” value worked out at 1.57%.
The value for `CC(C)Cn1c(=O)c2sccc2n2c(CCCC(=O)NCc3ccccc3)nnc12` was -2.15%.
As for `O=C(NCCc1ccccc1)C1CC(=O)N(C2CCCCCC2)C1` (centres unmarked), the “% Inhibition @ 10 uM” value is recorded as 14.9%.
